The results in this text go back to the supplement of paper PMC12355420.

The list shows a part of the results. Many values rest on one well or one pass, so single values are uncertain.
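Further: primary screen of an FDA-approved drug library in HeLa reporter cells in 96-well format, CellMask signal normalized to DMSO-treated wells set as 1, under 0.5 deemed highly cytotoxic.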

The test relates to HeLa VPS33A reporter cells. In words: relative cell viability (CellMask signal) vs DMSO (fraction of DMSO); HeLa model of a glycosaminoglycan (GAG) storage disease; KI is knock-in and KO knock-out; SDC1 is syndecan 1; higher = less cytotoxic. As to conditions: 50 µM; 24 h.
`Cn1c(=O)c2c(ncn2CC(O)CO)n(C)c1=O` (stereo unspecified) [Dyphylline] gave a relative cell viability of 1.26.

Turning to `CCOC(=O)CC(=O)N1CCSC1COc1ccccc1OC` (stereo unspecified) [Moguisteine], the relative cell viability was 0.91.

`CC(C)=CCC[C@](C)(O[C@@H]1O[C@H](CO)[C@@H](O)[C@H](O)[C@H]1O)[C@H]1CC[C@]2(C)[C@@H]1[C@H](O)C[C@@H]1[C@@]3(C)CC[C@H](O)C(C)(C)[C@@H]3[C@@H](O[C@@H]3O[C@H](CO)[C@@H](O)[C@H](O)[C@H]3O[C@@H]3O[C@@H](C)[C@H](O)[C@@H](O)[C@H]3O)C[C@]12C` [Ginsenoside Re]: the relative cell viability was 0.943.

Regarding `N[C@@H](Cc1cc(I)c(Oc2cc(I)c(O)c(I)c2)c(I)c1)C(=O)O` [L-Thyroxine], the relative cell viability was 1.14. Compound `CC(S)C(=O)NCC(=O)O` (stereo unspecified) [Tiopronin (Thiola)] returned a relative cell viability of 1.46. To `NCCc1c[nH]cn1` [histamine] belongs 1.05.

The compound `CCC(CC)O[C@@H]1C=C(C(=O)O)C[C@H](N)[C@H]1NC(C)=O` [Oseltamivir acid] showed a relative cell viability of 1.02.

`CC(=O)Oc1cc(C(F)(F)F)ccc1C(=O)O` [Triflusal] showed a relative cell viability of 0.969. Under `CC[C@@H]([C@H](C)O)n1ncn(-c2ccc(N3CCN(c4ccc(OC[C@@H]5CO[C@@](Cn6cncn6)(c6ccc(F)cc6F)C5)cc4)CC3)cc2)c1=O` [Posaconazole] stands 1.16. In turn, `CC[C@H](C)C(=O)O[C@H]1C[C@H](O)C=C2C=C[C@H](C)[C@H](CC[C@@H](O)C[C@@H](O)CC(=O)O)[C@H]21` [Pravastatin] displayed a relative cell viability of 1.31. To `Cc1cn([C@H]2C[C@H](O)[C@@H](CO)O2)c(=O)[nH]c1=O` [Thymidine] belongs 1.1.
